Laboratory results published in the supplement of paper PMC8728848.
The other results are listed elsewhere or left out.

Experiments:
Test in all cases: glycan array binding signal (z-score within array); higher = stronger binding
Details in all cases: glycan notation: IUPAC condensed, linker removed
[1] = biological target: Neu5Ac(a2-3)Gal(b1-4)GlcNAc(b1-3)Gal(b1-4)GlcNAc
Method in brief: (§1)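 The binding signal is a Z-score computed within each array. Data were drawn from 3228 arrays in the Consortium for Functional Glycomics database, restricted to those with a known protein sequence. Scores were averaged over arrays of the same protein sequence at different concentrations or buffers, and over linkers, and negative values can be taken as non-binding.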

[2] = biological target: Neu5Ac(a2-3)Gal(b1-4)GlcNAc(b1-3)Gal(b1-4)GlcNAc(b1-3)Gal(b1-4)GlcNAc
Method in brief: as §1

[3] = biological target: Neu5Ac(a2-3)Gal(b1-4)GlcNAc6S
Method in brief: as §1

[4] = biological target: Neu5Ac(a2-3)Gal(b1-4)[Fuc(a1-3)]GlcNAc
Method in brief: as §1

[5] = biological target: Neu5Ac(a2-3)Gal(b1-4)[Fuc(a1-3)]GlcNAc(b1-3)Gal
Method in brief: as §1

[6] = biological target: Neu5Ac(a2-3)Gal(b1-4)[Fuc(a1-3)]GlcNAc(b1-3)Gal(b1-4)GlcNAc
Method in brief: as §1

[7] = biological target: Neu5Ac(a2-3)Gal(b1-4)[Fuc(a1-3)]GlcNAc(b1-3)Gal(b1-4)[Fuc(a1-3)]GlcNAc(b1-3)Gal(b1-4)[Fuc(a1-3)]GlcNAc
Method in brief: as §1

[8] = biological target: Neu5Ac(a2-3)Gal(b1-4)[Fuc(a1-3)]GlcNAc6S
Method in brief: as §1

[9] = biological target: Neu5Ac(a2-3)Gal6S(b1-4)GlcNAc
Method in brief: as §1

[10] = biological target: Neu5Ac(a2-3)GalNAc
Method in brief: as §1

[11] = biological target: Neu5Ac(a2-3)[GalNAc(b1-4)]Gal(b1-4)Glc
Method in brief: as §1

[12] = biological target: Neu5Ac(a2-3)[GalNAc(b1-4)]Gal(b1-4)GlcNAc
Method in brief: as §1

[13] = biological target: Neu5Ac(a2-3)[Neu5Ac(a2-6)]GalNAc
Method in brief: as §1

[14] = biological target: Neu5Ac(a2-6)Gal
Method in brief: as §1

[15] = biological target: Neu5Ac(a2-6)Gal(b1-4)Glc
Method in brief: as §1

[16] = biological target: Neu5Ac(a2-6)Gal(b1-4)GlcNAc
Method in brief: as §1

[17] = biological target: Neu5Ac(a2-6)Gal(b1-4)GlcNAc(b1-3)Gal(b1-4)GlcNAc
Method in brief: as §1

[18] = biological target: Neu5Ac(a2-6)Gal(b1-4)GlcNAc(b1-3)Gal(b1-4)[Fuc(a1-3)]GlcNAc(b1-3)Gal(b1-4)[Fuc(a1-3)]GlcNAc
Method in brief: as §1

[19] = biological target: Neu5Ac(a2-6)Gal(b1-4)GlcNAc6S
Method in brief: as §1

[20] = biological target: Neu5Ac(a2-6)GalNAc
Method in brief: as §1

[21] = biological target: Neu5Ac(a2-8)Neu5Ac
Method in brief: as §1

[22] = biological target: Neu5Ac(a2-8)Neu5Ac(a2-3)Gal(b1-4)Glc
Method in brief: as §1

[23] = biological target: Neu5Ac(a2-8)Neu5Ac(a2-3)[GalNAc(b1-4)]Gal(b1-4)Glc
Method in brief: as §1

[24] = biological target: Neu5Ac(a2-8)Neu5Ac(a2-8)Neu5Ac
Method in brief: as §1

[25] = biological target: Neu5Ac(a2-8)Neu5Ac(a2-8)Neu5Ac(a2-3)Gal(b1-4)Glc
Method in brief: as §1

[26] = biological target: Neu5Ac(a2-8)Neu5Ac(a2-8)Neu5Ac(a2-3)[GalNAc(b1-4)]Gal(b1-4)Glc
Method in brief: as §1

[27] = biological target: Neu5Ac(b1-6)GalNAc
Method in brief: as §1

[28] = biological target: Neu5Ac(b2-6)Gal(b1-4)GlcNAc
Method in brief: as §1

[29] = biological target: Neu5Ac9Ac(a2-6)Gal(b1-4)GlcNAc
Method in brief: as §1

[30] = biological target: Neu5Gc(a2-3)Gal(b1-3)GlcNAc
Method in brief: as §1

[31] = biological target: Neu5Gc(a2-3)Gal(b1-3)[Fuc(a1-4)]GlcNAc
Method in brief: as §1

[32] = biological target: Neu5Gc(a2-3)Gal(b1-4)Glc
Method in brief: as §1

[33] = biological target: Neu5Gc(a2-3)Gal(b1-4)GlcNAc
Method in brief: as §1

[34] = biological target: Neu5Gc(a2-3)Gal(b1-4)[Fuc(a1-3)]GlcNAc
Method in brief: as §1

[35] = biological target: Neu5Gc(a2-6)Gal(b1-4)GlcNAc
Method in brief: as §1

[36] = biological target: Neu5Gc(a2-6)GalNAc
Method in brief: as §1

B1: Hip/Pap (Homo sapiens), Q06141 (protein)
chain: MLPPMALPSVSWMLLSCLMLLSQVQGEEPQRELPSARIRCPKGSKAYGSHCYALFLSPKSWTDADLACQKRPSGNLVSVLSGAEGSFVSSLVKSIGNSYSYVWIGLHDPTQGTEPNGEGWEWSSSDVMNYFAWERNPSTISSPGHCASLSRSTAFLRWKDYNCNVRLPYVCKFTD
glycan array binding signal (z-score) [1]: -0.142 | glycan array binding signal (z-score) [2]: -0.133 | glycan array binding signal (z-score) [3]: -0.057 | glycan array binding signal (z-score) [4]: -0.143 | glycan array binding signal (z-score) [5]: -0.134 | glycan array binding signal (z-score) [6]: -0.145 | glycan array binding signal (z-score) [7]: -0.133 | glycan array binding signal (z-score) [8]: -0.04 | glycan array binding signal (z-score) [9]: -0.188 | glycan array binding signal (z-score) [10]: -0.184 | glycan array binding signal (z-score) [11]: -0.179 | glycan array binding signal (z-score) [12]: -0.173 | glycan array binding signal (z-score) [13]: -0.168 | glycan array binding signal (z-score) [14]: -0.176 | glycan array binding signal (z-score) [15]: -0.173 | glycan array binding signal (z-score) [16]: -0.177 | glycan array binding signal (z-score) [17]: -0.154 | glycan array binding signal (z-score) [18]: -0.065 | glycan array binding signal (z-score) [19]: -0.161 | glycan array binding signal (z-score) [20]: -0.158 | glycan array binding signal (z-score) [21]: -0.177 | glycan array binding signal (z-score) [22]: -0.167 | glycan array binding signal (z-score) [23]: -0.174 | glycan array binding signal (z-score) [24]: -0.189 | glycan array binding signal (z-score) [25]: -0.169 | glycan array binding signal (z-score) [26]: -0.159 | glycan array binding signal (z-score) [27]: -0.175 | glycan array binding signal (z-score) [28]: -0.142 | glycan array binding signal (z-score) [29]: -0.128 | glycan array binding signal (z-score) [30]: -0.169 | glycan array binding signal (z-score) [31]: -0.15 | glycan array binding signal (z-score) [32]: -0.171 | glycan array binding signal (z-score) [33]: -0.181 | glycan array binding signal (z-score) [34]: -0.149 | glycan array binding signal (z-score) [35]: -0.189 | glycan array binding signal (z-score) [36]: -0.16
